# Measured values from PubChem BioAssay AID504333 (National Center for Advancing Translational Sciences (NCATS), 2011).
# Among all 360,000 compounds or so, about 16,000 (4.4%) were called active. Inconclusive means that the source gave no clear call. Such entries were picked first, then a sample of the others. Calls come from the whole dose curve; as a rule, active = well fitted inhibition curve with a large enough effect; inconclusive = small, poorly fitted or top-dose-only effect; inactive = no such curve, though single readings can be large or run the other way. A potency beside an inconclusive call is a rough fit, not a confirmed value.
# Target: Bromodomain adjacent to zinc finger domain protein 2B (Homo sapiens) (UniProt Q9UIF8)
# Sequence of UniProt Q9UIF8 (Q9UIF8 whole entry, looked up, the tested form may be a part): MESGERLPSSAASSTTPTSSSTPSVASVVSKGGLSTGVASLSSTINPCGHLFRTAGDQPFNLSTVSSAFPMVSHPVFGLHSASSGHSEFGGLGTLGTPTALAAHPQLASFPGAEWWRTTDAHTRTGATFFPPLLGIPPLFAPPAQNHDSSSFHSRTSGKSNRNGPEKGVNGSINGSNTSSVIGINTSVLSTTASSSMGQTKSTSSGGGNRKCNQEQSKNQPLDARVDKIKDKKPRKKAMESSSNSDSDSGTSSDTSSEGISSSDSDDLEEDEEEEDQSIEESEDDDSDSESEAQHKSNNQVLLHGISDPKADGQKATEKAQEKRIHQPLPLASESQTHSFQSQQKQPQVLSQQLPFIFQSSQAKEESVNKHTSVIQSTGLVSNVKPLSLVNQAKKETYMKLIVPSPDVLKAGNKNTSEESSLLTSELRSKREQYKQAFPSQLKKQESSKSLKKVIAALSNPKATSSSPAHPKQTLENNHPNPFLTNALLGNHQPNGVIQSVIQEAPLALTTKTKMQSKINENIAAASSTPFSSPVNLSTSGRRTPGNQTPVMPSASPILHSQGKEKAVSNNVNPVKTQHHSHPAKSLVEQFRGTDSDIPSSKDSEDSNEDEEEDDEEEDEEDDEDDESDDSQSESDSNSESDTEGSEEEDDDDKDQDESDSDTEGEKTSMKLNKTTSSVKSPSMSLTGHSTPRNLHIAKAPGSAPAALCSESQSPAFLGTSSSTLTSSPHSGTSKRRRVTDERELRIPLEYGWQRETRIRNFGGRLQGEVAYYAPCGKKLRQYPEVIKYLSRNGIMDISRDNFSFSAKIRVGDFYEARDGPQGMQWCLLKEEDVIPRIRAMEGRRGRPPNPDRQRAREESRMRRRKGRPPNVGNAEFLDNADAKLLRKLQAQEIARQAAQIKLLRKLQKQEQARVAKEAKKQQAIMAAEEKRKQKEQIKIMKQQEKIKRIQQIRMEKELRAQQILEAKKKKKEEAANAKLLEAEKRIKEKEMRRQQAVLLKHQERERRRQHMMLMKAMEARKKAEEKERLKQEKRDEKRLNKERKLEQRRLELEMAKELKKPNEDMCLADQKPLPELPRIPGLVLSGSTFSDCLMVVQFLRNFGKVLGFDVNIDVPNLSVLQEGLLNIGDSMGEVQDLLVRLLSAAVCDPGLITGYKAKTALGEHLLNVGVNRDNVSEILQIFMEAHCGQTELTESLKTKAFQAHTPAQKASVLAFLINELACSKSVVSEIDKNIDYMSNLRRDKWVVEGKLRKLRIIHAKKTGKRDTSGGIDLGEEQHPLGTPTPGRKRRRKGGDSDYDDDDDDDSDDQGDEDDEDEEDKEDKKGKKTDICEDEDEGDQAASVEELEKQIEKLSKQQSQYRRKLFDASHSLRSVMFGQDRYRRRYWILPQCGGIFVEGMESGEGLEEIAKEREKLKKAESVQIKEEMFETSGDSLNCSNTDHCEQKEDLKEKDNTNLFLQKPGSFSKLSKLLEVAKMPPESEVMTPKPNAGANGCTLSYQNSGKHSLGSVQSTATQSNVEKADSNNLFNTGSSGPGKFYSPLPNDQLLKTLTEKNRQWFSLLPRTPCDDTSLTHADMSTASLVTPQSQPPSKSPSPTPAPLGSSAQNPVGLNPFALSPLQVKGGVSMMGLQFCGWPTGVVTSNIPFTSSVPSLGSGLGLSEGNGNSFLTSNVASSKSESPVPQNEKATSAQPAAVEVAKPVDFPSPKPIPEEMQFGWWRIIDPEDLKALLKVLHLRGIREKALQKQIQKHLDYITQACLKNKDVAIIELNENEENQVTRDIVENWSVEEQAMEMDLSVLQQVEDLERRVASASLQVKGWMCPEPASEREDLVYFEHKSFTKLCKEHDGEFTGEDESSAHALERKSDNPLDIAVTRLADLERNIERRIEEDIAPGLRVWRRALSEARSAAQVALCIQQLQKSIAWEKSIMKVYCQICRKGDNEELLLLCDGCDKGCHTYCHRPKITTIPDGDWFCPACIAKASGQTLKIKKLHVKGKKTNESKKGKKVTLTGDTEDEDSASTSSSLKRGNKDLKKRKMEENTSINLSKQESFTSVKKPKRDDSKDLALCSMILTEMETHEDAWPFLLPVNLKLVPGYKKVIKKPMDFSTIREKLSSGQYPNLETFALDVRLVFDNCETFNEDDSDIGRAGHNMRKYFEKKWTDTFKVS
# Experiment: qHTS Assay for Inhibitors of BAZ2B; note: nearly all actives have a fitted effect of over 60% in size
# Settings: AlphaScreen BAZ2B-H3K14Ac peptide displacement; series mostly up to 114 µM
# Summary of the method: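 Compounds, titrated to a top concentration of 110 uM, were incubated 30 min at room temperature with preformed BAZ2B/acetyl-K14 H3 peptide complex (50 nM each). Proximity signal was measured by AlphaScreen after 20 min with beads.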
# Potency is the fitted concentration of half-maximal effect; tags give direction and shape of the fitted curve.
row,Structure (SMILES),Potency
1,COc1cccc(OC)c1OCCNCCO,inactive
2,Cc1ccc(/C=N/NC(=S)N2CCOCC2)cc1,"inconclusive: 8.91 µM [inhibitor, full curve]"
3,CCc1ccc(C2C(C#N)=C(N)Oc3cc(N)ccc32)cc1 (stereo unspecified),"inconclusive: 89.1 µM [inhibitor, single point]"
4,O=C(O)c1ccc(Nc2ncc([N+](=O)[O-])cc2[N+](=O)[O-])cc1,"inconclusive: 79.4 µM [inhibitor, partial curve]"
5,COc1cccc(NC(=O)CN2C(=O)c3ccccc3Sc3ncccc32)c1,inactive
6,COc1cc2nc(CN(C)Cc3nc4ccccc4c(=O)[nH]3)[nH]c(=O)c2cc1OC,inactive
7,O=C1N/C(=C/c2cccn2-c2ccccc2)C(=O)N1c1cccc(Cl)c1,inactive
8,CC1=NN(c2ccccc2)C(=O)/C1=C\C=C\c1ccccc1,active: 3.98 µM
9,Cc1ccc2nc(NNC(=O)c3ccc4c(c3)OCCO4)sc2c1,"inconclusive: 10 µM [inhibitor, full curve]"
10,Cc1ccc2cc(C3CC(c4ccco4)=NN3S(C)(=O)=O)c(Cl)nc2c1 (stereo unspecified),"inconclusive: 79.4 µM [inhibitor, single point]"
11,Cc1ccccc1Nc1c(-c2ccc(N3CCOCC3)cc2)nc2ccc(Br)cn12,"inconclusive: 3.98 µM [inhibitor, full curve]"
12,CCCCCCC(=O)Nc1nc(C)c(-c2csc(Nc3cc(Cl)ccc3C)n2)s1,"inconclusive: 50.1 µM [inhibitor, partial curve]"
13,Cc1ccc(-n2c(C)csc2=N)cc1,"inconclusive: 89.1 µM [inhibitor, single point]"
14,CC(C)(C)Nc1nc(SCC(=O)Nc2ccccc2Cl)nc(N2CCOCC2)n1,active: 79.4 µM
15,Cc1ccc(-c2csc3ncnc(N4CCN(c5ccccc5O)CC4)c23)cc1,"inconclusive: 12.6 µM [inhibitor, partial curve]"
16,CCOc1ccc(-n2c(C)nc(O)c2N=Nc2ccccc2)cc1,"inconclusive: 79.4 µM [inhibitor, single point]"
17,Cc1ccccc1OCC(=O)Nc1ccccc1-c1ccccc1,"inconclusive: 79.4 µM [inhibitor, single point]"
18,CCCc1ccc2oc(C(=O)N(Cc3ccncc3)CC3CCCO3)c(C)c2c1 (stereo unspecified),inactive
19,O=C(Nc1ccncc1)c1ccc(Cl)c(S(=O)(=O)N2CCc3ccccc32)c1,active: 50.1 µM
20,Cc1cccn2c(=O)c(/C=C(\C#N)C(=O)NCc3ccco3)c(N3CCOCC3)nc12,"inconclusive: 79.4 µM [inhibitor, single point]"
21,Cc1ccc2nc(C)cc(N3CCOCC3)c2c1,"inconclusive: 89.1 µM [inhibitor, single point]"
22,Cn1c(SCC(=O)c2ccc3c(c2)Cc2ccccc2-3)nnc1-c1ccccc1,"inconclusive: 79.4 µM [inhibitor, single point]"
23,C#CCOCCOCCOCCNc1nc(N2CCN(C(=O)[C@H]([C@@H](C)CC)n3cc([C@@H](N)Cc4ccc(O)cc4)nn3)CC2)nc(N2CCN(C(=O)[C@H](CCCCN)n3cc([C@@H](N)CO)nn3)CC2)n1,active: 50.1 µM
24,C=CCn1c(COc2ccccc2)nnc1SCc1ccc(C#N)cc1,inactive

row,Structure (SMILES),Potency
1,Cc1ccc(C(=O)NC2CC3CCCC(C2)N3C(=S)NCc2ccco2)cc1 (stereo unspecified),inactive
2,CCc1ccc(CN(C)CC(=O)Nc2ccc(S(=O)(=O)N3CCOCC3)cc2)cc1,inactive
3,CCCOc1ccccc1-n1sc2c(c1=S)-c1cc(OC)cc3c1N(C(=O)C3=O)C2(C)C,active: 2 µM
4,Cc1cccc(OCCCC(=O)Nc2ccc(S(=O)(=O)N3CCCC3)cc2)c1,"inconclusive: 3.98 µM [inhibitor, single point]"
5,CCOc1ccc(-c2c(C)nn3c(C)c(C(=O)NCCc4ccc(C)cc4)cnc23)cc1OCC,inactive
6,CC1(O)CC(c2ccc(Cl)cc2)=NN1C(=O)c1ccc([N+](=O)[O-])cc1 (stereo unspecified),active: 14.1 µM
7,COC(=O)Cc1c(C)c2ccc3c(c2oc1=O)CN(Cc1ccccc1Cl)CO3,inactive
8,Cn1ccnc1SCC(=O)c1ccc([N+](=O)[O-])cc1,"inconclusive: 70.8 µM [inhibitor, single point]"
9,C=CCn1c(SCC(=O)NCc2ccco2)nc2ccccc2c1=O,"inconclusive: 89.1 µM [inhibitor, single point]"
10,COc1ccc(CCNc2ccc(C)cc2)cc1,"inconclusive: 70.8 µM [inhibitor, single point]"
11,COc1cc(CNCc2ccccc2)ccc1OCC(O)c1ccccc1 (stereo unspecified),"inconclusive: 79.4 µM [inhibitor, single point]"
12,Cc1ccc(NC(=O)CCc2c[nH]c3ccccc23)nc1,"inconclusive: 50.1 µM [inhibitor, partial curve]"
13,CSc1cccc(NC(=O)N2CCc3ccc(NC(=O)c4ccccn4)cc3C2)c1,"inconclusive: 70.8 µM [inhibitor, single point]"
14,COc1ccc(NC(=O)CN2CCN(C3c4ccccc4-c4ccccc43)CC2)cc1,"inconclusive: 79.4 µM [inhibitor, partial curve]"
15,Cc1cc(N(C)C)ccc1[N+](=O)[O-],inactive
16,COc1ccccc1-c1cc(C(=O)Nc2cccnc2Cl)no1,inactive
17,N/C(=N\OC(=O)c1ccc(Br)o1)c1ccccn1,inactive
18,Cc1ccc2[nH]c(CNC(=O)c3ccccc3F)cc2c1,"inconclusive: 89.1 µM [inhibitor, single point]"
19,CC(C)(c1ccccc1)c1ccc(OCC(O)CNC2CCN(Cc3ccccc3)CC2)cc1 (stereo unspecified),active: 50.1 µM
20,O=C(c1ccccc1)N1c2nc(-c3ccco3)nn2C2(CCCCC2)[C@@H]2CCCC[C@@H]21,inactive
21,OCc1cnc(SCc2ccccc2F)n1Cc1ccc(F)cc1,"inconclusive: 79.4 µM [inhibitor, partial curve]"
22,C#CC[N+]1(CC#Cc2ccccc2)CCOCC1,"inconclusive: 31.6 µM [inhibitor, full curve]"
23,Cc1ccc2c(c1)c1cccc3c1n2CCN3CCC(N)=O,active: 39.8 µM
24,CC(=O)C1=C(O)C(=O)N(CCN2CCOCC2)C1c1ccccc1 (stereo unspecified),"inconclusive: 89.1 µM [inhibitor, single point]"

row,Structure (SMILES),Potency
1,O=C(O)c1cccc2c1C(=O)N(CC1CCCO1)C2 (stereo unspecified),"inconclusive: 89.1 µM [inhibitor, single point]"
2,CSc1ccccc1NC(=O)Cc1ccc(Br)cc1,"inconclusive: 22.4 µM [inhibitor, single point]"
3,O=C(NC1(C(F)(F)F)C(=O)Nc2c1c(=O)[nH]c(=O)n2-c1ccc(F)cc1)c1cccnc1 (stereo unspecified),"inconclusive: 89.1 µM [inhibitor, single point]"
4,C/C(=N\Nc1cccc(C(=O)O)c1)c1ccc(Cl)s1,"inconclusive: 39.8 µM [inhibitor, partial curve]"
5,Cc1ccc2nc(-c3ccccc3)c(CN3CCSCC3)n2c1,"inconclusive: 70.8 µM [inhibitor, partial curve]"
6,COc1cccc(NC(=O)CN(C)S(=O)(=O)/C=C/c2ccccc2)c1,inactive
7,C/C(=N\NC(=S)Nc1ccccc1C)c1ccc(O)cc1,"inconclusive: 39.8 µM [inhibitor, partial curve]"
8,C#CCOCCOCCOCCNc1nc(N2CCN(C(=O)CCCCCCCCCCNC(=O)[C@H](CCCCN)n3cc(CCO)nn3)CC2)nc(N2CCN(C(=O)CCCCCCCCCCNC(=O)[C@H](CCCCN)n3cc(C[C@@H](C)CC)nn3)CC2)n1,"inconclusive: 50.1 µM [inhibitor, partial curve]"
9,CCOC(=O)c1ccc(S(=O)(=O)NNC(=O)COc2cccc(C)c2)cc1,inactive
10,COc1cc(/C=C(/C(=O)c2cccs2)c2nc3ccccc3[nH]2)ccc1O,"inconclusive: 39.8 µM [inhibitor, partial curve]"
11,O=C(Oc1c(-c2ccccc2)c(=O)n2c3c(cccc13)CC2)c1cccc([N+](=O)[O-])c1,"inconclusive: 28.2 µM [inhibitor, full curve]"
12,O=C1OC(Nc2nccs2)c2ccccc21 (stereo unspecified),inactive
13,CC(=O)C1=C(O)C(=O)N(CCC(=O)O)C1c1ccccc1Cl (stereo unspecified),"inconclusive: 89.1 µM [inhibitor, single point]"
14,Brc1ccccc1-n1nnc(-c2ccnc3ccccc23)n1,"inconclusive: 56.2 µM [inhibitor, partial curve]"
15,Cc1ccc(NC(=O)COc2cccc(/C=C3\SC(=S)N(CCC(=O)O)C3=O)c2)cc1Cl,active: 44.7 µM
16,COc1cccc(/C=N/NC(=O)CCCc2ccc(OC)c(C)c2)c1,inactive
17,COc1ccc2c(c1)C(=O)C(=O)N2,"inconclusive: 89.1 µM [inhibitor, single point]"
18,CCn1cc(C(=O)NCCCN(C)c2ccccc2)c(=O)c2cc(S(=O)(=O)N(C)C)ccc21,"inconclusive: 44.7 µM [inhibitor, partial curve]"
19,CC(C)(C)NS(=O)(=O)c1ccc(NC(=O)C(Sc2ccccc2)c2ccccc2)cc1 (stereo unspecified),inactive
20,NC(N)=NC(=S)Nc1ccc(Cl)cc1,"inconclusive: 79.4 µM [inhibitor, single point]"
21,COc1ccc(S(=O)(=O)NCC(=O)N(CC(=O)NCC2CCCO2)Cc2ccc(F)cc2)cc1 (stereo unspecified),inactive
22,CC(=O)c1c(C)[nH]c(C(=O)N(CCc2ccccc2)Cc2ccccc2)c1C,"inconclusive: 89.1 µM [inhibitor, single point]"
23,O=C(C1=C(O)C(=O)N(CC2CCCO2)C1c1ccc(Cl)cc1Cl)c1ccco1 (stereo unspecified),"inconclusive: 56.2 µM [inhibitor, partial curve]"
